Source: the supplement of paper PMC10126150
Values marked as one replicate rest on one cluster of the flow cell; about a third of the high ones do not repeat.

Tested on: ATP
Experiment: switch fluorescence ratio, 500 uM ATP over buffer (Cy3 cluster intensity, sum of 5 cycles each) (fold (ratio)); higher = stronger signal-on switching upon ATP binding; sequences stand for … in TCGTCGGCAGCGTCAGATGTGTATAAGAGACAGTTTTTTTTTTTTTTTTTTTTTTTTT…TC
Conditions: aptamer strand: ATP DNA aptamer (quencher-CACCTGGGGGAGTATTGCGGAGGAAGG + anchor), 100 nM annealed; ATP concentration: 500 uM; one replicate
Outline: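 After annealing to 100 nM quencher-labelled ATP aptamer, Cy3-labelled switching-strand clusters on a modified Illumina MiSeq flow-cell were imaged in selection buffer. A second image followed after 15 min with 500 uM ATP at 22 °C, and five such buffer/ATP cycles were done, each separated by NaOH stripping and re-annealing. The fluorescence ratio, averaged per switch-domain sequence, is summed target-cycle over summed buffer-cycle Cy3 intensity per cluster, with clusters outside 100-1000 RFU excluded.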
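Note: ATP exposure 15 min at 22 °C before imaging.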

CACTCTATCT gave a switch fluorescence ratio of 1.02.

Work on CACGCATTCG yielded a switch fluorescence ratio of 1.09.

In the case of AATGAATTTT, the switch fluorescence ratio is reported as 0.952.

TGTGCGTGGG showed a switch fluorescence ratio of 1.01.

In the case of AACCCTTAGT, the switch fluorescence ratio is reported as 0.995.

With CAGGATGGTC the switch fluorescence ratio was 0.963.

GAGCAAACAT showed a switch fluorescence ratio of 1.12.

CGTTCCGGAT gave a switch fluorescence ratio of 1.07.

AGGGTGTTCG was tested, and the switch fluorescence ratio was 0.953.

With AACAAAGGAG the switch fluorescence ratio was 1.03.

With CGTGTGGCT the switch fluorescence ratio was 1.03.

For CAGTTAGGAA, the switch fluorescence ratio was 1.

For AATGAGGGG, the switch fluorescence ratio was 0.977.

TGGGTGATTC gave a switch fluorescence ratio of 1.02.

TGCCATGTGA was tested, and the switch fluorescence ratio was 1.01.

CAAAGCAAGC gave a switch fluorescence ratio of 3.84.

TTTTGTGTCC showed a switch fluorescence ratio of 0.966.

In the case of CATGTAAACC, the switch fluorescence ratio is reported as 1.01.

GTCGGTTTAG showed a switch fluorescence ratio of 1.02.

TCCCTGCCCC showed a switch fluorescence ratio of 1.15.

Work on AAAGGTGTAA yielded a switch fluorescence ratio of 0.997.

TACCAAGGTC showed a switch fluorescence ratio of 1.03.

CTTTATTTT showed a switch fluorescence ratio of 0.973.

GAATTAGGT showed a switch fluorescence ratio of 1.02.

In the case of TTATGGCCCA, the switch fluorescence ratio is reported as 0.961.

For CGGTCTTGAT, the switch fluorescence ratio was 1.01.

GAAAGTCAAC showed a switch fluorescence ratio of 1.02.

CGCATAGTTA gave a switch fluorescence ratio of 1.03.

AGGGTCGTTG was tested, and the switch fluorescence ratio was 0.991.

In the case of TCTGTTTTAC, the switch fluorescence ratio is reported as 1.08.

GCGTTTGAGT showed a switch fluorescence ratio of 0.991.

CGACGGGGCG gave a switch fluorescence ratio of 1.03.

TTTCGGTCCG showed a switch fluorescence ratio of 1.03.

With CGTTACCGGC the switch fluorescence ratio was 0.96.

GCATTTTGTA gave a switch fluorescence ratio of 0.994.

In the case of TCGCTCGGAT, the switch fluorescence ratio is reported as 1.03.

TTGGGTGAGA gave a switch fluorescence ratio of 1.03.

GCGAGCTGCG was tested, and the switch fluorescence ratio was 0.99.

For CCTGGTAATT, the switch fluorescence ratio was 1.03.

With AGGTGGCGCA the switch fluorescence ratio was 0.984.

Work on GGAAGGGGTC yielded a switch fluorescence ratio of 1.06.

Sequence GAGATCATCC has a switch fluorescence ratio of 0.972.

Work on CGGAAAACGC yielded a switch fluorescence ratio of 1.06.

Sequence GGTTTTGCCG has a switch fluorescence ratio of 1.01.

AAATGCAGGC was tested, and the switch fluorescence ratio was 1.03.

CTCTCTTAAT was tested, and the switch fluorescence ratio was 1.03.

CCTCATATCT was tested, and the switch fluorescence ratio was 1.03.

Sequence TTGAGTTGTG has a switch fluorescence ratio of 0.962.

CGGTGGGACT gave a switch fluorescence ratio of 0.983.

AGCATAAGA showed a switch fluorescence ratio of 0.995.

Work on AAACGCATGG yielded a switch fluorescence ratio of 1.22.

With GATATGGGAT the switch fluorescence ratio was 1.

CATCTGTACT gave a switch fluorescence ratio of 1.07.

Work on AGATCTTAGG yielded a switch fluorescence ratio of 0.976.

For GTCATACGAT, the switch fluorescence ratio was 1.01.

In the case of ATCTACAAGC, the switch fluorescence ratio is reported as 1.06.

GACATGGCCT gave a switch fluorescence ratio of 1.05.

Work on ACAGATTCG yielded a switch fluorescence ratio of 0.985.

CACTTGTGGG gave a switch fluorescence ratio of 1.03.

Sequence CCTATCTCGT has a switch fluorescence ratio of 0.998.

TCAGGCTTGG gave a switch fluorescence ratio of 1.01.

Work on CCAAGTATTG yielded a switch fluorescence ratio of 1.01.

GCTAAACGTA gave a switch fluorescence ratio of 1.06.

Sequence GGTTTCTACG has a switch fluorescence ratio of 1.03.

CTACACTTGC was tested, and the switch fluorescence ratio was 1.19.

In the case of TTTGACGTT, the switch fluorescence ratio is reported as 1.09.

TGTGTGTTG showed a switch fluorescence ratio of 1.07.

GTTACCGGGG was tested, and the switch fluorescence ratio was 1.

For TGAAGTGGG, the switch fluorescence ratio was 0.974.

GCTGCTGCAG was tested, and the switch fluorescence ratio was 0.966.

GAAGTCTCAT was tested, and the switch fluorescence ratio was 0.978.

With TTGCGTTTTC the switch fluorescence ratio was 1.06.

CTTGGTTCAT was tested, and the switch fluorescence ratio was 0.999.

For CGCTACCGTG, the switch fluorescence ratio was 1.02.

Work on CGTTAGATGC yielded a switch fluorescence ratio of 1.1.

ACTCTTCTAG showed a switch fluorescence ratio of 1.05.

In the case of AGTCACGCG, the switch fluorescence ratio is reported as 1.04.

Work on GATGTATCGC yielded a switch fluorescence ratio of 1.02.

With TAACCCGGTA the switch fluorescence ratio was 1.03.

ACTTTGTTAT showed a switch fluorescence ratio of 1.02.

Work on CTTGCGAGGC yielded a switch fluorescence ratio of 1.49.

For TCGTATAGGC, the switch fluorescence ratio was 1.04.

For TTGTCGAGTG, the switch fluorescence ratio was 1.02.

In the case of GTACCGCTCG, the switch fluorescence ratio is reported as 0.987.

GCGACGCTTT was tested, and the switch fluorescence ratio was 1.58.

AGAGAAAAAC gave a switch fluorescence ratio of 1.05.

Work on CGATCGTTAA yielded a switch fluorescence ratio of 1.04.

CAAAGGCACG showed a switch fluorescence ratio of 1.05.

Work on TCAACATCTA yielded a switch fluorescence ratio of 1.02.

TTACTACGCC showed a switch fluorescence ratio of 1.35.

With ATACTGTGCA the switch fluorescence ratio was 0.996.

With CTCCACTGA the switch fluorescence ratio was 1.18.

With TATATCGGTT the switch fluorescence ratio was 0.969.

TTTAGTCAAA was tested, and the switch fluorescence ratio was 1.06.

In the case of AGGGGCAAGG, the switch fluorescence ratio is reported as 1.04.

With ATAATTTTGC the switch fluorescence ratio was 0.995.

With TCGAGATCGT the switch fluorescence ratio was 0.954.

Work on TCACGTCCAC yielded a switch fluorescence ratio of 1.4.

With AGAATTCGA the switch fluorescence ratio was 0.931.

With AGCGTGATGT the switch fluorescence ratio was 1.03.

GCTATAACGA was tested, and the switch fluorescence ratio was 1.13.

CGGTACCCGA was tested, and the switch fluorescence ratio was 0.983.

TGATGCCGGT gave a switch fluorescence ratio of 1.12.

For ACAGTGGTTA, the switch fluorescence ratio was 1.01.

With GTGAAATGTT the switch fluorescence ratio was 0.972.

TACTTGGCTA gave a switch fluorescence ratio of 1.03.

CATTGGAGAG showed a switch fluorescence ratio of 1.03.

For GGATTAGAGA, the switch fluorescence ratio was 1.01.

AGGTTTGGTA was tested, and the switch fluorescence ratio was 1.01.

Work on AAGTGGACGG yielded a switch fluorescence ratio of 0.996.

In the case of GGGATAAAAA, the switch fluorescence ratio is reported as 0.987.

Work on GTTGCAATCG yielded a switch fluorescence ratio of 1.23.

In the case of CTCTGGTTTG, the switch fluorescence ratio is reported as 0.949.

With CAGTTAAAAT the switch fluorescence ratio was 0.987.

GGCTCGTGCA gave a switch fluorescence ratio of 1.01.

For AATGACGTGA, the switch fluorescence ratio was 0.995.

With AAATGGCGGA the switch fluorescence ratio was 0.999.

GAAAGCAGTG was tested, and the switch fluorescence ratio was 0.972.

In the case of TCCAGCCGTT, the switch fluorescence ratio is reported as 0.976.

Work on GCGATAGGCA yielded a switch fluorescence ratio of 1.01.

GGTTCAAGTC was tested, and the switch fluorescence ratio was 1.04.

Sequence CAGTTTGGTA has a switch fluorescence ratio of 1.03.

Work on AATTAGAAAT yielded a switch fluorescence ratio of 1.02.

Sequence TTCGCCAAAA has a switch fluorescence ratio of 1.09.

Sequence TACTCCAAGG has a switch fluorescence ratio of 1.29.

With ATGGAAGCGT the switch fluorescence ratio was 1.01.

ATACGATGGA was tested, and the switch fluorescence ratio was 0.979.

In the case of AACGGCAGTT, the switch fluorescence ratio is reported as 1.01.

Work on GCGCCGGAAA yielded a switch fluorescence ratio of 1.06.

CGTTAATTTC showed a switch fluorescence ratio of 0.995.

In the case of ATCTGCTCGA, the switch fluorescence ratio is reported as 1.01.

In the case of CCACCTGATA, the switch fluorescence ratio is reported as 1.07.

Work on GCATTCTAG yielded a switch fluorescence ratio of 1.05.

GACGTCTTAT gave a switch fluorescence ratio of 0.973.

In the case of GGACAAGGTC, the switch fluorescence ratio is reported as 1.

In the case of CGAGCTTAAA, the switch fluorescence ratio is reported as 1.

For GTAGGACGCT, the switch fluorescence ratio was 1.02.

With CGAACTCCTT the switch fluorescence ratio was 1.

GAATTTCGT was tested, and the switch fluorescence ratio was 1.01.

Sequence GCCCGGGTGA has a switch fluorescence ratio of 2.7.

In the case of AGGATGGAAC, the switch fluorescence ratio is reported as 0.994.

Work on GTGTCGGGGG yielded a switch fluorescence ratio of 0.93.

For TACACTGATG, the switch fluorescence ratio was 1.04.

In the case of TGTTCCGTTC, the switch fluorescence ratio is reported as 1.02.

Work on GTAATGGAGA yielded a switch fluorescence ratio of 1.01.

With CTCGGACGA the switch fluorescence ratio was 0.947.

GATTTATGCG gave a switch fluorescence ratio of 0.977.

Sequence TGGAGTATAT has a switch fluorescence ratio of 1.01.

For TTCACCAGAC, the switch fluorescence ratio was 1.13.

With CTGCTCAGGC the switch fluorescence ratio was 1.03.

Work on GTTTGATCCG yielded a switch fluorescence ratio of 0.944.

GTCGGAGCAT showed a switch fluorescence ratio of 1.04.

Sequence TTCATCGATT has a switch fluorescence ratio of 0.977.
